Data from PubChem BioAssay AID1346428 (National Center for Advancing Translational Sciences (NCATS), 2018).
In all, about 48,000 compounds went through this assay and about 1,200 (2.5%) were called active. Another 2% or so got no clear call; they are omitted.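 The calls were made as follows: active = activation of at least 60% and not above a set upper limit (about 1 call in 100 departs from these limits); inconclusive = activation of 40% to 60%, or above that upper limit; inactive = activation under 40%.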 The list shows a part of the results.
Also: 0% is about no effect.

What follows are compounds tested against Probable G-protein coupled receptor 32 (Homo sapiens) (UniProt O75388) (assay: qHTS for Agonists of Human Resolvin D1 Receptor DRV1). Conditions: CHO-K1 GPR32 beta-arrestin PathHunter luminescence, 90 min; at 76.9 µM; active compounds read high; zero percent set by DMSO-only wells.
UniProt O75388, sequence (O75388 whole entry, looked up, the tested form may be a part): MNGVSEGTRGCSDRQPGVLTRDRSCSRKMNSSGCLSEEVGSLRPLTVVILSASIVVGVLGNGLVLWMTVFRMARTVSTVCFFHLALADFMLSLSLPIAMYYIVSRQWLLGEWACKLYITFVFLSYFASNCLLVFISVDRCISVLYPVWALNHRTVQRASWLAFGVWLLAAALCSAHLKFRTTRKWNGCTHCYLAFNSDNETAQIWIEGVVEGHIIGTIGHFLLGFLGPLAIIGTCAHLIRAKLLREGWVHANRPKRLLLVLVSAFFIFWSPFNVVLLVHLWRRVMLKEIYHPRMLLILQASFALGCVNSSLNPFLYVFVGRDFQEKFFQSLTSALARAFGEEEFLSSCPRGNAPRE
How it was run: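 GPR32 activation in stably transfected CHO-K1 cells, detected as beta-arrestin recruitment by enzyme-fragment complementation. Compound exposure: 90 min, 37 °C.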
C=CCOc1ccccc1OCC(O)CNC(C)C (stereo not drawn) was tested, and the activation was inactive: -8.55%.
For COc1ccc(N2CCN(C(=O)c3c4c(nc5ccccc35)C(=O)N(C3CCCCC3)C4)CC2)cc1, the activation was inactive: -5.07%.
In the case of COc1cccc(N2CC(NC(=O)C3CCCC3)CC2=O)c1 (stereo not drawn), the activation is reported as inactive: 0.358%.
With O=C(Nc1ccc2nc(SCC(=O)N3CCCC3)sc2c1)c1cccc(F)c1 the activation was inactive: -6.42%.
For CCc1ccc(-n2c(=O)c3ccc(C(=O)NCCc4ccccc4)cc3n(Cc3ccccc3C#N)c2=O)cc1, the activation was inactive: -5.99%.
COC(=O)c1c(-c2cccs2)csc1NC(=O)c1ccc(C(C)(C)C)cc1 was tested, and the activation was inactive: 0.607%.
With CSc1ccc(C2c3[nH]c4ccccc4c3CCN2C(=O)CCC2CCCC2)cc1 (stereo not drawn) the activation was inactive: -38.2%.
With COc1ccc(-c2nc3ccccc3o2)cc1NC(=O)c1ccc(OCC(C)C)cc1 the activation was inactive: 1.62%.
COc1ccc(-c2nnc(SCC(=O)c3ccc(NC(C)=O)cc3)o2)cc1OC was tested, and the activation was inactive: -11.4%.
Cc1cc(C)cc(NC(=O)CCCc2nnc3n(CC(C)C)c(=O)c4sccc4n23)c1 was tested, and the activation was inactive: -9.84%.
Cc1ccc(NC(=O)c2ccc3c(c2)NC(=O)c2ccccc2S3)cc1 was tested, and the activation was inactive: 12.7%.
Cc1ccc(S(=O)(=O)C(CNC(=O)COc2ccc(Cl)cc2)c2ccco2)cc1 (stereo not drawn) was tested, and the activation was inactive: -19.7%.
With CCOc1ccc(-c2nnc(SCC(=O)c3ccc(F)cc3)n2-c2ccccc2)cc1 the activation was inactive: -12%.
In the case of CC(=O)Nc1cccc(NC(=O)CSc2nccn2Cc2ccco2)c1, the activation is reported as inactive: -0.161%.
For COc1ccc(/C=C/C(=O)Nc2ccc(Cl)cc2Cl)cc1, the activation was inactive: 16%.
With COc1ccc2c(c1)c(CC(=O)O)c(C)n2C(=O)c1ccccc1 the activation was inactive: 3.43%.
In the case of Cc1ccc(Cn2ccnc2SCC(=O)Nc2ccc3c(c2)OCCO3)cc1, the activation is reported as inactive: -20.9%.
CCN(CC)CCCNC(=O)C(=O)Nc1ccc2nc3n(c(=O)c2c1)CCCCC3 was tested, and the activation was inactive: 4.19%.
For Cc1ccccc1CNC(=O)c1cc2cccc3c2n1CC(C)S3 (stereo not drawn), the activation was inactive: -22.5%.
In the case of O=C(Nc1cccc(Cl)c1)c1cc(S(=O)(=O)N2CCCc3ccccc32)ccc1F, the activation is reported as inactive: -19.2%.
For CCOc1cc(C2CC(=O)Nc3c2c(=O)nc(SCc2cccc(Cl)c2)n3C)ccc1O (stereo not drawn), the activation was inactive: -20.3%.
For Cc1ccc(NC(=O)Cn2cc(C(=O)c3ccco3)c3ccccc32)c(C)c1, the activation was inactive: -14.3%.
For COc1ccc(-c2cc(C(=O)Nc3sc4c(c3C(N)=O)CCC(C)C4)no2)cc1 (stereo not drawn), the activation was inactive: -7.46%.
With Fc1ccccc1N1CCN(c2ncnc3onc(-c4cccc(Cl)c4)c23)CC1 the activation was inactive: 2.56%.
Cc1c(NC(=O)Nc2ccc(Cl)c(C(F)(F)F)c2)c(=O)n(-c2ccccc2)n1C was tested, and the activation was inactive: -30.9%.
With CCOc1ccc(OCC)c(-n2cnnn2)c1 the activation was inactive: -11.6%.
For COc1cccc(OCc2cc(=O)n3cc(C)sc3n2)c1, the activation was inactive: -4.01%.
With CC(=O)Nc1ccc(NC(=O)c2nc(SCc3ccccc3C)ncc2Cl)cc1 the activation was active: 65.4%.
For NS(=O)(=O)c1ccc(NC(=O)CN2CCN(c3ccc(F)cc3)CC2)cc1, the activation was inactive: 3.32%.
Cn1c(=O)c2c(-c3ccccc3Br)n(Cc3ccccc3)cc2n(C)c1=O was tested, and the activation was inactive: 0%.
For Cc1cccn2c(=O)cc(COc3ccc(NC(=O)C(C)Oc4ccccc4)cc3)nc12 (stereo not drawn), the activation was inactive: -4.89%.
CCCCNC(=O)c1cc(-c2ccc(Cl)c(Cl)c2)on1 was tested, and the activation was inactive: 8.61%.
For Cc1ccc(Cl)cc1-n1ncc2c(NCCC3=CCCCC3)ncnc21, the activation was inactive: 49%.
With COc1ccc(-c2cc3c(=O)n(CC(=O)Nc4cc(C)ccc4C)ccn3n2)cc1 the activation was inactive: -6.78%.
For CCc1ccc(C(=O)CSc2nc(-c3ccccc3)nc3c2CCCC3)cc1, the activation was inactive: -7.78%.
For Cc1ccc(CNC(=O)CN2C(=O)CSc3ccc(S(=O)(=O)N4CCCC4)cc32)cc1, the activation was inactive: -22.5%.
Cc1ccc(C)c(N2CCN(S(=O)(=O)c3ccc4c(c3)CCCN4C(=O)C3CCC3)CC2)c1 was tested, and the activation was inactive: -29.6%.
For COc1ccc2nc3sc(C(=O)N4CCN(c5ccc(F)cc5)CC4)cc3cc2c1, the activation was inactive: -1.53%.
In the case of Cc1cc2oc(C(=O)Nc3sc4c(c3C(=O)NCc3ccccc3)CCCC4)cc(=O)c2cc1C, the activation is reported as inactive: -3.06%.
With COc1ccc(CNS(=O)(=O)c2ccc(F)c(C(=O)Nc3c(C)cc(C)cc3C)c2)cc1 the activation was inactive: 11.5%.
With CCOC(=O)c1cc(-c2ccc(OC)cc2)n(CCC(=O)Nc2cccc(C(C)=O)c2)c1C the activation was inactive: -15.6%.
COc1cccc(-c2nc3c(c(SCc4ccccc4Cl)n2)Cc2c(CO)cnc(C)c2O3)c1 was tested, and the activation was inactive: 24.6%.
For CN(C)c1ccc(CNC(=O)CN2C(=O)CCn3nc(-c4cn(C)c5ccccc45)cc32)cc1, the activation was inactive: 30.4%.
